According to PMC547899:
These are yes or no findings as the source states them, for the method shown. For some assays here: In cells and extracts the contact can be indirect. Some results given as binding are weak or reduced against the parent protein; the word gives no strength. One block for each molecule: values may come before it.

The chains behind the UniProt entries cited, without tags or fusion partners.
UniProt Q9UQE7: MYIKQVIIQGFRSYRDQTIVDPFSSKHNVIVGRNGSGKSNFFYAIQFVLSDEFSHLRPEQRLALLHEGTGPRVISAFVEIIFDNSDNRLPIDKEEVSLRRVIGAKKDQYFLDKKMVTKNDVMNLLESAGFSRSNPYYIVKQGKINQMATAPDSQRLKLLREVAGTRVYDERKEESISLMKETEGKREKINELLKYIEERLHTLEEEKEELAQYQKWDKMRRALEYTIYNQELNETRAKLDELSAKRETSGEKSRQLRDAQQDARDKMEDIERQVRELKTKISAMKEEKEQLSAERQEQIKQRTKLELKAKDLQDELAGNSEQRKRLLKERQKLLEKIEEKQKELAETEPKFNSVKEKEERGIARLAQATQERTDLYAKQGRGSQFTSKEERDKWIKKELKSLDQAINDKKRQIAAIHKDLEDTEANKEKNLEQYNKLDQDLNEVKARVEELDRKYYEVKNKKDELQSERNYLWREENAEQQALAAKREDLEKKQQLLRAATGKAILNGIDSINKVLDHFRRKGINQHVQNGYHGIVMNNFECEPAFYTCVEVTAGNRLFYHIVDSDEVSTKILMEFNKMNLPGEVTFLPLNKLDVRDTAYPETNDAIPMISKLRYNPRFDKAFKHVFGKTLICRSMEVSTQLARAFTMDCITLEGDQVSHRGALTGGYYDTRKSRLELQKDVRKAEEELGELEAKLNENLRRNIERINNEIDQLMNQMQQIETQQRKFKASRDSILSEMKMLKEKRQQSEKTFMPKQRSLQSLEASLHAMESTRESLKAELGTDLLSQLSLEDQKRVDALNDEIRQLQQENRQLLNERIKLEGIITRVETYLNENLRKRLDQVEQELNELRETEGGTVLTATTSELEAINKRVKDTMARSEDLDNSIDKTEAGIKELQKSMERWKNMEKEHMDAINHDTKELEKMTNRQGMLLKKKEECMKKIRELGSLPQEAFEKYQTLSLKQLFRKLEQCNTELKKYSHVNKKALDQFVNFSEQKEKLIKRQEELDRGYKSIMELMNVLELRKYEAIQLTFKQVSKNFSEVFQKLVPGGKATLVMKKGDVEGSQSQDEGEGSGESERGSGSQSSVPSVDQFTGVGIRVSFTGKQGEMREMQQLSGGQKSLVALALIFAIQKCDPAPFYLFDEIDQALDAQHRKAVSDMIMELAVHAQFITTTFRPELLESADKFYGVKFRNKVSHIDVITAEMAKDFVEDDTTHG

Assays:
[1] = biological target: Hinderin-V5 (complete Hinderin coding region with V5 tag) (human) (UniProt Q86T90); assay: co-IP; 293 cells transfected with Hinderin-V5, lysate in 50 mM Tris-HCl pH 7.5, 150 mM NaCl, 1% Nonidet P40, 0.5% Na-deoxycholate; precipitated with anti-SMC3, anti-SMC1 or anti-V5 antibody on protein G-agarose, washed with 300 mM NaCl, immunoblotted
[2] = biological target: T1, SMC1 (endogenous, 293 cells) (human (endogenous in 293)) (UniProt Q14683); assay: as above
T1 sequence: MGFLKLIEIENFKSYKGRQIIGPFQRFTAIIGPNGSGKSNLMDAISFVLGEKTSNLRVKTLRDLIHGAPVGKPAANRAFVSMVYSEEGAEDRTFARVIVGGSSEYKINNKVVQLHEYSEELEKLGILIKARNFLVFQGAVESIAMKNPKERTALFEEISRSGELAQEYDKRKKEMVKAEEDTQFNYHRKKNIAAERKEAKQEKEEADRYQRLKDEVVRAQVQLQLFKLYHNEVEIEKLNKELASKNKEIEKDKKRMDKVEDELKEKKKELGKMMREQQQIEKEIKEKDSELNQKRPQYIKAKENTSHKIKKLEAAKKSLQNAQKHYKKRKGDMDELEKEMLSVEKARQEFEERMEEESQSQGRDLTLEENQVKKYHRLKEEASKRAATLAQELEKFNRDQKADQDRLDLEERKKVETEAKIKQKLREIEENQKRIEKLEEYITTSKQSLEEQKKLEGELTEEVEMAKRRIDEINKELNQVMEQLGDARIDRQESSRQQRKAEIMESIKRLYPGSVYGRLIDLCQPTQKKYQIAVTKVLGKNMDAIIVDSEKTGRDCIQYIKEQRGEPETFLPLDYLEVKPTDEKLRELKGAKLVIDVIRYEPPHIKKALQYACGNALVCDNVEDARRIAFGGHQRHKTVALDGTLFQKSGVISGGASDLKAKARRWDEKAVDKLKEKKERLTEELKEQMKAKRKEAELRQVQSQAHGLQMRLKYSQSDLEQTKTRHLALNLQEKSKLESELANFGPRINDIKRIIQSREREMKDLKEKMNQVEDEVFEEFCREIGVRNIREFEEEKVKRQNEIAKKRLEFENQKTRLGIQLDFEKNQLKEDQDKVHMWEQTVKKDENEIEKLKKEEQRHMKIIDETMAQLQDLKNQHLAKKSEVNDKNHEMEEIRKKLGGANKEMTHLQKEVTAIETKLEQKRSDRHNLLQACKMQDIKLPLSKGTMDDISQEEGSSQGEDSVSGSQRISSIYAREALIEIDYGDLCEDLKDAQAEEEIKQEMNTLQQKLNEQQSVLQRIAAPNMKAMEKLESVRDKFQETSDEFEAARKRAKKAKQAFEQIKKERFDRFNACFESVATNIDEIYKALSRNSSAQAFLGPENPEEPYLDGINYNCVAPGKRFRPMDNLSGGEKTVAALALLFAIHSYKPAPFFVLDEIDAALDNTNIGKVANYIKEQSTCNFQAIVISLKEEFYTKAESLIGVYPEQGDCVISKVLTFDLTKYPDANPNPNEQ

[3] = biological target: SMC3 (endogenous, 293 cells) (human (endogenous in 293)) (UniProt Q9UQE7); assay: as above
[4] = biological target: T2, Hinderin H-47/578 (clone retrieved from the two-hybrid library) (human) (UniProt Q86T90); assay: two-hybrid; yeast two-hybrid, AH109 cotransformed with defined bait (pGBKT7) and prey (pACT2 or pGADT7) constructs; scored by the rate of appearance of blue colonies and the colour; null score when no blue colonies after ten days
T2 sequence: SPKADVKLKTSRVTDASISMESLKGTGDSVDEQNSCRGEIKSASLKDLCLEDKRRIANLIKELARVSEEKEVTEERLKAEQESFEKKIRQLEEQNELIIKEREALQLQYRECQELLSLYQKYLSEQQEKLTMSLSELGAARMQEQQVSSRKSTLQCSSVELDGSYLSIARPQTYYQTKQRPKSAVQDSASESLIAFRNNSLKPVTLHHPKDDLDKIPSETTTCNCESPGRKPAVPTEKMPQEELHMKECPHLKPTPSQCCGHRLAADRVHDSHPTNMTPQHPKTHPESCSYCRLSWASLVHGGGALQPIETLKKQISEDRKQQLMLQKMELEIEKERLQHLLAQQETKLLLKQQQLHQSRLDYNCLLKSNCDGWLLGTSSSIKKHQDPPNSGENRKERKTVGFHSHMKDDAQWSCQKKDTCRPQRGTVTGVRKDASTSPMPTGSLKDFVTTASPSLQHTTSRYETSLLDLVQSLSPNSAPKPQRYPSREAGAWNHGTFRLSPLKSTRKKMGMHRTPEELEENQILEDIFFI

binding [1]: binds
Molecule: SMC3 (endogenous, 293 cells) (from UniProt Q9UQE7 1-1217)

binding [2]: no binding
binding [3]: binds
Molecule: Hinderin-V5 (complete Hinderin coding region with V5 tag) (from UniProt Q86T90 1-577)

binding [1]: no binding
B1: SMC1 (endogenous, 293 cells) (protein, UniProt Q14683 1-1233)
chain: MGFLKLIEIENFKSYKGRQIIGPFQRFTAIIGPNGSGKSNLMDAISFVLGEKTSNLRVKTLRDLIHGAPVGKPAANRAFVSMVYSEEGAEDRTFARVIVGGSSEYKINNKVVQLHEYSEELEKLGILIKARNFLVFQGAVESIAMKNPKERTALFEEISRSGELAQEYDKRKKEMVKAEEDTQFNYHRKKNIAAERKEAKQEKEEADRYQRLKDEVVRAQVQLQLFKLYHNEVEIEKLNKELASKNKEIEKDKKRMDKVEDELKEKKKELGKMMREQQQIEKEIKEKDSELNQKRPQYIKAKENTSHKIKKLEAAKKSLQNAQKHYKKRKGDMDELEKEMLSVEKARQEFEERMEEESQSQGRDLTLEENQVKKYHRLKEEASKRAATLAQELEKFNRDQKADQDRLDLEERKKVETEAKIKQKLREIEENQKRIEKLEEYITTSKQSLEEQKKLEGELTEEVEMAKRRIDEINKELNQVMEQLGDARIDRQESSRQQRKAEIMESIKRLYPGSVYGRLIDLCQPTQKKYQIAVTKVLGKNMDAIIVDSEKTGRDCIQYIKEQRGEPETFLPLDYLEVKPTDEKLRELKGAKLVIDVIRYEPPHIKKALQYACGNALVCDNVEDARRIAFGGHQRHKTVALDGTLFQKSGVISGGASDLKAKARRWDEKAVDKLKEKKERLTEELKEQMKAKRKEAELRQVQSQAHGLQMRLKYSQSDLEQTKTRHLALNLQEKSKLESELANFGPRINDIKRIIQSREREMKDLKEKMNQVEDEVFEEFCREIGVRNIREFEEEKVKRQNEIAKKRLEFENQKTRLGIQLDFEKNQLKEDQDKVHMWEQTVKKDENEIEKLKKEEQRHMKIIDETMAQLQDLKNQHLAKKSEVNDKNHEMEEIRKKLGGANKEMTHLQKEVTAIETKLEQKRSDRHNLLQACKMQDIKLPLSKGTMDDISQEEGSSQGEDSVSGSQRISSIYAREALIEIDYGDLCEDLKDAQAEEEIKQEMNTLQQKLNEQQSVLQRIAAPNMKAMEKLESVRDKFQETSDEFEAARKRAKKAKQAFEQIKKERFDRFNACFESVATNIDEIYKALSRNSSAQAFLGPENPEEPYLDGINYNCVAPGKRFRPMDNLSGGEKTVAALALLFAIHSYKPAPFFVLDEIDAALDNTNIGKVANYIKEQSTCNFQAIVISLKEEFYTKAESLIGVYPEQGDCVISKVLTFDLTKYPDANPNPNEQ

binding [4]: no binding
B2: SMC1-485/670 (entire SMC1 hinge region) (domain or fragment, UniProt Q14683 485-670)
chain: GDARIDRQESSRQQRKAEIMESIKRLYPGSVYGRLIDLCQPTQKKYQIAVTKVLGKNMDAIIVDSEKTGRDCIQYIKEQRGEPETFLPLDYLEVKPTDEKLRELKGAKLVIDVIRYEPPHIKKALQYACGNALVCDNVEDARRIAFGGHQRHKTVALDGTLFQKSGVISGGASDLKAKARRWDEKA
